The whole screen tested about 150,000 compounds, of which about 540 (0.36%) showed an effect of 50% or more. Some of the results follow.
Tested on: Plasmodium falciparum
Assay: Primary screen in NF54 nanoGlo assay, in single point, at 2uM, 72h; a lower Z score goes with more inhibition
Format: functional, Erythrocyte
Settings: timepoint 72 hour

Structure (SMILES) | % Inhibition [%] | Z score
Cc1ccc(CN(Cc2ccncc2)C(=O)[C@@H]2CCCCO2)s1 | -9 | 1.41
CC[C@H](NS(=O)(=O)c1cc(C(N)=O)cs1)c1nc(C)c(C)s1 | -11 | 1.71
O=C(O)C[C@H]1COCCN1C(=O)c1cccc2c1CCC2 | -11 | 1.11
Cc1nnc(CC(=O)N(c2ccc3[nH]ccc3c2)[C@@H](C)CC(C)C)o1 | -18 | 2.96
C[C@H]1CN(C(=O)NCCc2ccccc2F)C[C@]1(O)C1CC1 | -3 | 0.55
CCCc1nnc(-c2ccc([C@H](C)N(C)C)cc2)s1 | -6 | 1.02
C[C@H](OC(=O)c1ccc2c(c1)CCCC2)C(=O)Nc1ccc(S(N)(=O)=O)cc1 | 29 | -3.22
O=c1c2cccnc2ncn1[C@H]1COC[C@@H]1N1CCCC1 | -8 | 0.71
CC(C)N1CCC(NC(=O)c2cc3c(s2)CCCC3)CC1 | 1 | -0.26
COc1ccc(CCNc2oc(CC(C)C)nc2C#N)cc1 | 4 | -0.47
Cc1ccc(S(=O)(=O)NCc2ccc(C(=O)NCCCN(Cc3ccccc3)C(C)C)cc2)cc1 | -4 | 0.68
CCn1cc(-c2nncn2-c2ccccc2)c(C)n1 | -12 | 1.43
OCC1(c2ccccc2)CN(Cc2cc(Cl)ccc2F)C1 | -13 | 1.66
O=C(Nc1ccc(F)cn1)N1CC2(CCOCC2)[C@@H]2CCC[C@@H]21 | -14 | 2.81
c1cncc(C2CN(c3ncnc4[nH]ccc34)C2)c1 | 5 | -0.87
CC[C@H](C)N(Cc1ccccc1OS(=O)(=O)c1ccc(OC)cc1)C(=O)c1cccc(F)c1 | 20 | -2.85
CC(C)COc1ncccc1C(=O)N1CCN(CC(F)(F)F)C(=O)C1 | -1 | 0.07
Cc1cc(C)cc(NC(=O)CN2C(=O)CCc3cc(S(=O)(=O)N4CCCC4)ccc32)c1 | -7 | 1.38
CS(=O)(=O)CCC(=O)N1CCC(F)(F)CC1 | 3 | -0.58
CCN1CCNC(=O)[C@@H]1CC(=O)NCc1ncc2c(n1)CCC2 | -6 | 1.19
COc1cc(CNS(=O)(=O)N(C)C)ccn1 | -6 | 1.13

Structure (SMILES) | % Inhibition [%] | Z score
CC(C(=O)O)c1cccc(NC(=O)C(C)c2cccs2)c1 (centres undefined) | 3 | -0.53
C[C@@H](C(=O)NCc1ccccc1)n1c2ccccc2c2cn[nH]c(=O)c21 | 8 | -1.22
CCS(=O)(=O)N1CCCc2cc(NS(=O)(=O)Cc3ccc(C)cc3)ccc21 | 20 | -2.55
Cc1cccc(NC(=O)N2CCCN(c3nc(Cc4ccccc4)nc4c3c(C)nn4-c3ccccc3)CC2)c1C | 14 | -1.51
CC1CCN(C2(CN)CCCCC2)CC1 | 0 | 0.07
CO[C@H]1CCOC[C@@H]1NC(=O)c1cc2cc(C)c(C)cc2o1 | -13 | 1.53
Cc1nc(C)c(-c2cc(F)ccc2OC[C@H]2CCOC2)s1 | 0 | 0.02
Cc1ccc(CN2CCC[C@H](c3nnc(Cn4cccn4)n3C)C2)c(F)c1 | -17 | 2.16
COc1ccc(CCc2nc(NC(=O)c3ccccn3)n[nH]2)cc1 | -3 | 0.4
COc1ccccc1[C@H]1CN(Cc2cccc3cccnc23)C[C@@H]1C(=O)O | -7 | 1.17
Cc1cc(C)cc(NC(=O)Cc2nc(C)c(C(=O)NCc3ccccc3)s2)c1 | 44 | -5.63
CCCn1cnnc1CN(C)C(=O)NCc1ccc2nonc2c1 | -17 | 1.85
Cc1ccc(N2CCC(CNC(=O)c3ccoc3)CC2)nn1 | -10 | 1.61
CC(C)COC(=O)c1nc2ccccc2nc1Nc1ccc2c(c1)OCCO2 | 8 | -0.98
CC(C)OCc1cccc(-c2cc(C(=O)O)c(=O)n(C3CC3)c2)c1 | -2 | 0.21
CCCCc1nc(C)cc(NCCNc2nc(N)nc3[nH]cnc23)n1 | -15 | 2.18
O=S1(=O)COCCN1CCOCc1ccccc1 | -5 | 0.77
CN(Cc1ccccc1)C(=O)[C@H]1CCC[C@H]1NC(=O)c1ccncc1 | 8 | -1.06
CC1CCCC(C)N1C(=O)c1ccccc1NC(=O)C1CCCC1 (centres undefined) | -10 | 1.24
Cn1ccc2cc(CCNC(=O)C(N)=O)ccc21 | -6 | 1.08
CC(C)(Oc1ccc2c(c1)CCC2)C(=O)NCCc1nc(O)cc(O)n1 | 4 | -0.52

— ChEMBL document CHEMBL4888484, “Replenishing the malaria drug discovery pipeline: Screening and hit evaluation of the MMV Hit Generation Library 1 (HGL1) against asexual blood stage Plasmodium falciparum ,using a nano luciferase reporter read-out” (2022)
